# Data from publication PMC12040169 (PLOS Biology, 2025).
# The other results are listed elsewhere or left out.
# System: T1, C. trachomatis L2/434/Bu expressing GFP (CTL2-GFP)
# T1 construct: L2/434/Bu GFP intracellular growth in HeLa cells
# Set-up: species or system HeLa; C. trachomatis total inclusion area by high-content imaging, normalised to DMSO
# Conditions: total inclusion area; 28.5 h, 10 µM; inhibitor
# Summary of the method: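 High-content images of fixed, Hoechst-stained infected cultures supply inclusion area and count (growth) plus nuclei number (viability), complementing bulk GFP/resorufin fluorescence. MIC determination is unchanged from the primary assay.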
row,SMILES,% of control remaining
1,O=C(O)c1cccc(-n2cc(-c3ccc(F)cc3F)nn2)c1 [CBK112998],90.6143
2,Cn1c(=O)c2c(ncn2CC(=O)Nc2ccc(OCc3ccccc3)cc2)n(C)c1=O [CBK130478],97.6289
3,CC(C)(CNC(=O)Cn1cccc(C(=O)NC2CCCCC2)c1=O)c1cccc(F)c1 [CBK286069],131.639
4,CC(=O)N1CCc2c([nH]c3c(C)cccc23)C12CCCN(CCCC#N)C2 (centres unmarked) [CBK039705],84.5023
5,Nc1ccc(Cl)cc1C(O)(CCCN1CCCCC1)c1ccccc1 (centres unmarked) [CBK023107],7.874
6,CCc1nn(CC(=O)N(C(C)C)C(C)C)c(=O)c2cc3occc3n12 [CBK283658],93.5416
7,Cc1nc(C2CCCN(C(=O)C3CCC3)C2)nc2c1CCCN2Cc1ccccc1 (centres unmarked) [CBK286257],110.888
8,O=C(O)c1ccccc1-c1ccccc1C(=O)Nc1ccccc1-c1ccccc1 [CBK262843],84.4455
9,CC(=O)CSc1nsc(SCC(C)=O)n1 [CBK006702],75.8516
10,CC(C)Nc1nccnc1OCCOc1cccc(O)c1 [CBK115878],93.0114
11,CN1C(=O)COc2ccccc2CCCC[C@@H]2[C@H]1CCCN2C(=O)CCn1ccnc1 [CBK292150],121.346
12,O=C(NC1CCN(CCOc2ccccc2F)CC1)c1cccs1 [CBK305737],69.6672
13,CN1CCN(C(=O)c2ccc(-c3ccoc3)nc2)CC1 [CBK156280],109.604
14,COc1ccc(NC(=N)Nc2nc(=O)cc(CSc3nc4ccccc4s3)[nH]2)cc1 [CBK266256],159.622
15,O=C(O)CCc1ccc(-c2ccc(F)cc2)n1-c1cc(Cl)ccc1O [CBK131891],84.7175
16,COc1cc2c(cc1S(N)(=O)=O)C(=O)CCC2 [CBK010234],83.4546
17,c1ccc(CN2CCC[C@H]2c2nc(-c3ccc(-c4cncnc4)nc3)no2)cc1 [CBK288891],120.598
18,Cc1c(C)n(Cc2ccco2)c2ncnc(NCC(=O)O)c12 [CBK307563],95.2417
19,O=C(NCC(c1ccccc1)c1ccccc1)N1CCCCC1CO (centres unmarked) [CBK156186],82.6432
20,CC1CCc2noc(C3CCN(C(=O)c4ccnn4C)CC3)c2C1 (centres unmarked) [CBK285232],63.5265
21,CN(C)S(=O)(=O)N1CCN(Cc2ccccc2)CC1 [CBK263638],113.383
22,O=C(c1ccc2c(c1)OCCO2)N1CCC2(CCN(C(=O)c3cc(F)c(F)cc3F)C2)C1 (centres unmarked) [CBK131410],93.4398
23,CN1CCCC(C(O)c2ccccc2)C1 (centres unmarked) [CBK012472],88.3399
24,COc1ccc([C@H]2CN(Cc3ccccc3)C[C@@H]2NC(=O)c2ccco2)cc1OC [CBK286478],82.7096
25,Cc1ccc(-c2ncc(OCCN3CCCC3=O)nc2N)c(C)c1 [CBK145127],108.244
26,O=C(c1[nH]c2ccccc2c1NS(=O)(=O)/C=C/c1ccccc1)N1CCOCC1 [CBK050068],58.1527
27,Cn1cc(CCNC(=O)N2CCN(Cc3ccsc3)CC2)cn1 [CBK305692],77.6711

row,SMILES,% of control remaining
1,O=c1cc(O)c2sc3nc(-c4ccco4)cc(C(F)(F)F)c3c2[nH]1 [CBK270223],54.6599
2,Cc1cc(C)n2nc(SCc3nc4sc(C(=O)O)c(C)c4c(=O)[nH]3)nc2n1 [CBK297482],83.4078
3,Cc1cc(C)n(C(=O)CCNS(=O)(=O)c2ccc(Cl)cc2)n1 [CBK269348],88.7586
4,NC(=O)CCN1CCc2ccccc2C1 [CBK138325],94.1979
5,Cc1ccc(-n2ncc3c(=O)n(CC(=O)Nc4ccc(C)cc4C)cnc32)cc1 [CBK287535],114.144
6,O=C(Cc1csc(-c2c(Cl)cccc2Cl)n1)NC[C@H]1CC[C@H](C(=O)O)CC1 [CBK299767],109.083
7,CC(C)Nc1nccnc1OCCc1c[nH]c2ccccc12 [CBK115647],100.181
8,CS(=O)(=O)Nc1ccc(CNC(=O)c2ccc3[nH]ccc3c2)cc1 [CBK161747],100.816
9,Cc1cc(C)cc(Nc2cc(C)n3c(=O)[nH]nc3n2)c1 [CBK288380],88.2022
10,Cc1oc2c(c1C(=O)N(C)CCN1CCCCC1)CCCC2 [CBK281907],95.8678
11,Cc1ccc(N(CC(=O)Nc2ccc(Br)c(C)c2)S(=O)(=O)c2ccc(C)cc2)cc1 [CBK264038],115.202
12,C=CCOc1c(Br)cc(CNc2cccc(C(=O)O)c2)cc1OC [CBK074581],69.8665
13,O=S(=O)(CC(F)(F)F)Nc1ccc(N2CCNCC2)c2ccccc12 [CBK059354C],68.1176
14,Cc1c(Cl)cc(C(C)C)c(O)c1CNC(=O)CSc1nnc(-c2cccs2)n1C [CBK267416],92.0579
15,COc1cccc(C(C(F)(F)F)P(C)(=O)O)c1 (centres unmarked) [CBK262393],92.7049
16,COc1ccnc(N2CCCN(Cc3ncc(Cl)n3C)CC2)n1 [CBK305152],36.9997
17,O=C(c1nc2ccccc2[nH]1)N1CCc2ccccc21 [CBK200411],85.9732
18,N#CC1CCCc2c1[nH]c1ccccc21 (centres unmarked) [CBK098397],70.8629
19,c1ccc2c(c1)N1CCCN=C1N2CCN1CCOCC1 [CBK278300C],87.5478
20,CCN1CCN(C(=O)c2c(C)noc2C)CC1 [CBK200374],100.574
21,Cc1oc2nc(CSc3ccc4ccccc4c3)[nH]c(=O)c2c1C(=O)O [CBK296645],49.9425
22,CCN1CCN(CC(=O)C(C#N)c2ccccc2)CC1 (centres unmarked) [CBK269423],99.9959
23,Nc1ncc(-c2ccco2)nc1NCC1CCOCC1 [CBK063825],93.7315
24,CCOC(=O)CSc1c2cc3c(nc2nc(=O)n1Cc1ccccc1)CC(C)(C)OC3 [CBK018608],51.8395
25,O=C(O)CSc1c(NC(=O)c2ccccc2)sc2c1CCCC2 [CBK261062],105.829
26,Clc1ccc(CN2CCN(Cc3ccc(Cl)cc3)C2c2ccncc2)cc1 [CBK265207],108.265
27,O=C(Nc1ccc(S(=O)(=O)NCc2ccncc2)cc1)c1ccccc1Cl [CBK269664],59.0743

row,SMILES,% of control remaining
1,O=C(Nc1ccc(O)cc1)c1ccc(N2C(=O)c3cccc([N+](=O)[O-])c3C2=O)cc1 [CBK262600],104.707
2,N=c1n(CCN2CCCCC2)c2ccccc2n1CC(=O)c1cccc([N+](=O)[O-])c1 [CBK263481B],51.4797
3,CC(C)C(=O)Nc1ccc(-c2ccsc2)c2ccccc12 [CBK083758],109.06
4,N#Cc1ccccc1N1C(=O)c2cccc([N+](=O)[O-])c2C1=O [CBK115322],85.211
5,O=C(Cn1c(=O)c2nncn2c2ncccc21)NC1CCCCCC1 [CBK288600],127.349
6,CCOC(=O)C1=NOC2COC3(CCN(c4ncccn4)CC3)OCC12 (centres unmarked) [CBK018602],55.1996
7,N#C/C(=C/c1ccc(Sc2ccc(Cl)cc2)o1)c1ccc(C(=O)O)cc1 [CBK268996],114.534
8,Fc1ccc(-c2cnn(-c3ccc(OC(F)(F)F)cc3)n2)c(F)c1 [CBK112740],106.549
9,Cc1csc(N2CCC(NC3COc4ccc(F)cc4C3)CC2)n1 (centres unmarked) [CBK304751],85.827
10,c1ccc2c(c1)oc1cccc(-c3cc(NCCc4c[nH]cn4)ncn3)c12 [CBK037708],74.449
11,COc1ccccc1N(CCCc1cc(C(F)(F)F)cc(C(F)(F)F)c1)C(=O)C(N)C(C)C (centres unmarked) [CBK001004T],0.1135
12,OC(CN1CCN(Cc2ccccc2)CC1)Cn1c2ccc(Br)cc2c2cc(Br)ccc21 (centres unmarked) [CBK262203],46.6979
13,NS(=O)(=O)c1ccc(NC(=S)NCCN2CCOCC2)cc1 [CBK265818],68.4758
14,O=C(NCCOc1cccc(Cl)c1Cl)c1ccccc1-c1ccccc1 [CBK267390],7.81
15,O=C(Cn1cnc(-c2nccs2)n1)N1CCCCCC1 [CBK306165],88.9593
16,COc1ccc(CN2CCC[C@H]2c2nc(-c3ccc(OC)nc3)no2)c(O)c1 [CBK288898],121.303
17,Cc1cc(C)c(OCC(=O)Nc2ccc3oc(-c4cncc(Br)c4)nc3c2)c(Cl)c1 [CBK266634],110.297
18,COc1c(C(=O)Nc2ccc(CN3CCOCC3)cc2)cc2ccccc2c1Br [CBK268593],115.621
19,CCCn1c(C)cc2cc(NC(=O)Cn3ccnc3)ccc21 [CBK281549],105.404
20,Cc1cc(C)n(CCNCc2cc(-c3ccc(F)cc3)c[nH]c2=O)n1 [CBK284694],115.299
21,C=C(C)Cn1c(SCC(C)C)nnc1-c1ccccc1OC(F)(F)F [CBK200080],80.8475
22,CC1CC(=O)N(c2cccc(C(=O)Nc3cccc(-c4cccc(F)c4)c3)c2)C1=O (centres unmarked) [CBK285734],89.5059
23,C(=C\c1ccccc1)/Cn1c(COc2ccccc2)nc2ccccc21 [CBK265535],80.5426
24,Cn1cnnc1SCC(=O)Nc1c(F)cccc1F [CBK295150],102.836
25,Cc1nc2ccccc2n1CC(=O)NCCN1CCCC1 [CBK267336],96.316
26,COc1ccc(C(=O)N2C[C@@H]3C[C@H](C2)c2ccc(NC(=O)C4CC4)c(=O)n2C3)cc1 [CBK289072],105.717
